Test results reported in PubChem BioAssay AID686979 (National Center for Advancing Translational Sciences (NCATS), 2013).
“And” between values parts separate entries of the source, which are not always exact repeats. Identical values can stand only once. Hit rate of the full screen: of about 420,000 compounds, about 50,000 (12%) were called active. This list was built around the results that the source calls inconclusive (neither active nor inactive); the mix of calls is not that of the screen. Calls follow the shape of the dose curve; as a rule, active = well fitted inhibition curve with a large enough effect; inconclusive = small, poorly fitted or top-dose-only effect; inactive = flat fitted curve, though single readings scatter. Potencies of inconclusive entries are doubtful fits and often do not repeat.

Assay: qHTS for Inhibitors of human tyrosyl-DNA phosphodiesterase 1 (TDP1): qHTS in cells in presence of CPT; also: nearly all actives have a fitted effect of over 55% in size
Settings: chicken DT40 Tdp1-/-;hTDP1 cells + 20 nM CPT, ATP luminescence, 48 h; activity change, negative = growth inhibition: at 46.2 µM (top of the series)
Procedure, shortened: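 Cell growth measured by CellTiter-Glo luminescence after a minimum 48 h, 37 C compound exposure with 20 nM CPT in Tdp1-knockout DT40 cells stably expressing hTDP1, seeded 400/well; qHTS titration format.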
% is scaled to controls: 0 for no effect and ±100 for the full control effect; potency is read from the fitted curve at half-maximal effect; tags tell the direction and shape of the fitted curve.

Q: Which Potency does the source give for `COc1ccccc1CCNCc1ccc(OC)c(OCc2ccccc2)c1` here?
A: inactive

Q: For `COc1ccc(Cn2cc(CN3CCOCC3)nn2)cc1`, which Potency is on record?
A: inactive

Q: Which Potency does the source give for `Cc1ccc(N2C(=O)CC2(C#N)c2ccc(OCc3ccccc3)cc2)cc1` (centres undefined) here?
A: inconclusive: 29.1 µM [inhibitor, single point]

Q: Which Potency does the source give for `CC1(C(=O)NCc2ccccc2Br)CCN1Cc1c(F)cccc1F` (centres undefined) here?
A: inconclusive: 23.1 µM [inhibitor, single point]

Q: For `Cc1cc(C)c2oc(C(=O)Nc3c(C(=O)c4ccccc4)oc4ccccc34)cc(=O)c2c1`, which Potency is on record?
A: inactive

Q: Which Potency does the source give for `COc1cccc2cc(C(=O)NCc3ccc(C)cc3)c(=N)oc12` here?
A: inconclusive: 25.9 µM [inhibitor, single point]

Q: Which Potency does the source give for `COc1ccc(C(=O)NN/C(C)=C/C(=O)c2ccccc2)cc1` here?
A: inconclusive: 14.6 µM [inhibitor, single point]

Q: Which Potency does the source give for `Cc1nonc1-c1ccc2c(c1)OCO2` here?
A: inactive

Q: Which Potency does the source give for `O=C(COc1ccc(S(=O)(=O)N2CCOCC2)cc1)NCC1CCCO1` (centres undefined) here?
A: inactive

Q: For `COc1ccc(-n2nnnc2C(c2cc3ccccc3o2)N2CCN(C/C=C/c3ccccc3)CC2)cc1` (centres undefined), which Potency is on record?
A: active: 23.1 µM

Q: For `COc1ccc2c(c1)CC(C1(O)C(=O)N(C)c3ccccc31)C2=O` (centres undefined), which Potency is on record?
A: inconclusive: 23.1 µM [inhibitor, single point]

Q: Which Potency does the source give for `Nc1ccc2ccccc2c1N=Nc1ccccc1` here?
A: inconclusive: 14.6 µM [inhibitor, partial curve, poor fit]

Q: Which Potency does the source give for `Cc1ccc(C2(O)CN(c3ccccc3)C3=[N+]2CCS3)cc1` (centres undefined) here?
A: inconclusive: 29.1 µM [inhibitor, single point]

Q: For `COC(=O)c1cc(S(=O)(=O)N2CCN(c3cc(Cl)ccc3C)CC2)c[nH]1`, which Potency is on record?
A: inconclusive: 20.6 µM [inhibitor, single point]

Q: Which Potency does the source give for `CCc1cc(C(=O)Nc2ncccc2O)sc1C` here?
A: inconclusive: 29.1 µM [inhibitor, single point]

Q: For `Cc1ccc(NC(=O)CSc2nc(N)c3c4c(sc3n2)CSC(C)(C)C4)cc1`, which Potency is on record?
A: active: 23.1 µM

Q: With `COc1ccc(-c2nc3cnc(N4CCN(C)CC4)nc3n(Cc3ccc(F)cc3)c2=O)cc1` as the compound, how does the Potency read?
A: inconclusive: 29.1 µM [inhibitor, single point]

Q: For `O=c1c2c(-c3ccco3)csc2nc(SCc2cn3cccnc3n2)n1-c1ccccc1`, which Potency is on record?
A: inconclusive: 23.1 µM [inhibitor, single point]

Q: Which Potency does the source give for `NNc1cc([N+](=O)[O-])cc2c1C(=O)N(Cc1ccccc1)S2=O` (centres undefined) here?
A: inactive

Q: For `Cc1ccc2c(c1)C(c1ccc(O)cc1)(c1ccc(O)cc1)C(=O)N2C`, which Potency is on record?
A: inactive

Q: With `CCCCn1c(N)c(N(CC)C(=O)c2ccc(Cl)c(Cl)c2)c(=O)[nH]c1=O` as the compound, how does the Potency read?
A: inactive

Q: For `CC(C)(C)OC(=O)C1C(=O)CC(C)(O)C(C(=O)OC(C)(C)C)C1c1ccco1` (centres undefined), which Potency is on record?
A: inactive

Q: With `CC(CC(=O)Nc1ccccc1)NCCCN1CCCC1=O` (centres undefined) as the compound, how does the Potency read?
A: inactive

Q: With `CC(=O)Nc1nn(C)c2nc3cc(C)ccc3cc12` as the compound, how does the Potency read?
A: inconclusive: 13 µM [inhibitor, partial curve]

Q: For `Cc1nc2nc3c(c(=O)n2[nH]1)CCC3`, which Potency is on record?
A: inactive

Q: With `Cc1ccc(C(=O)NCCC(C)C)cc1NC(=O)c1nsc2ccccc12` as the compound, how does the Potency read?
A: active: 16.4 µM

Q: For `CCN(CC)c1ccc(NC(=O)Cn2c3ncccc3c(=O)n2-c2ccccc2)c(C)c1`, which Potency is on record?
A: inconclusive: 29.1 µM [inhibitor, single point]

Q: Which Potency does the source give for `CCOC(=O)c1ccc(Nc2ccc(C(C)=O)cc2)cc1` here?
A: inconclusive: 20.6 µM [inhibitor, single point]

Q: With `CC1(C)CC(N=C2C([N+](=O)[O-])=CC=C3C2=NC2(CCCCC2)N3O)CC(C)(C)N1` as the compound, how does the Potency read?
A: inactive

Q: With `O=C(CN1CCN(C(=O)c2cc(C3CC3)nn2-c2ccccc2)CC1)Nc1ccc(F)cc1` as the compound, how does the Potency read?
A: inactive

Q: Which Potency does the source give for `CN1CCN(CCCNC(=O)c2ccc(/C=C3/Sc4ccccc4N(Cc4cccc(Cl)c4)C3=O)cc2)CC1` here?
A: inconclusive: 23.1 µM [inhibitor, single point]

Q: Which Potency does the source give for `O=C(Nc1cccc(S(=O)(=O)C(F)F)c1)c1ccc(S(=O)(=O)N2CCCCC2)cc1` here?
A: inconclusive: 29.1 µM [inhibitor, single point]

Q: With `COc1ccccc1CNc1ncnc2c1c(-c1ccccc1)cn2-c1ccc(Br)cc1` as the compound, how does the Potency read?
A: inconclusive: 20.6 µM [inhibitor, single point]

Q: For `Cc1cccc(CSc2ncnc3ccccc23)c1`, which Potency is on record?
A: inactive

Q: With `CCOc1ccc2cc(C(=O)NCc3ccccc3)c(=N)oc2c1` as the compound, how does the Potency read?
A: inconclusive: 29.1 µM [inhibitor, single point]

Q: For `Cc1ccc2c(c1)-c1c(cnn1CC(=O)N1CCN(c3cc(C)ccc3C)CC1)CO2`, which Potency is on record?
A: inconclusive: 20.6 µM [inhibitor, single point]

Q: For `O=C(Nc1cccc2ccccc12)c1csc([C@@H]2O[C@H](CO)[C@H](O)[C@H](O)[C@H]2O)n1`, which Potency is on record?
A: inactive

Q: With `COc1cc(C2=NOC(C(=O)NCc3ccc(F)cc3)C2)cc(OC)c1OC` (centres undefined) as the compound, how does the Potency read?
A: active: 0.82 µM

Q: With `COc1ccc(Cl)cc1NC(=O)COC(=O)C1=NNC(=O)CC1` as the compound, how does the Potency read?
A: inactive

Q: Which Potency does the source give for `O=C(NCCc1ccccc1)[C@@H]1CC=C[C@@H]2CCN(Cc3ccccc3)C(=O)[C@@H]21` here?
A: inconclusive: 35.5 µM [inhibitor, single point] and inconclusive: 18.4 µM [inhibitor, single point]

Q: For `Cc1ccccc1CNC(=O)C(=O)NCC(c1ccc2c(c1)OCO2)N1CCOCC1` (centres undefined), which Potency is on record?
A: inactive

Q: With `COc1ccc(OCc2cc(C(=O)NCC3CCOCC3)no2)c(Cl)c1` as the compound, how does the activity change, negative = growth inhibition read?
A: inconclusive: -30.6% [inhibitor]

Q: Which Potency does the source give for `COCCOC(=O)C1=C(C)N(Cc2ccccc2)C(=O)NC1c1ccc(OC)cc1` (centres undefined) here?
A: inactive

Q: For `COc1cccc2cc(C(=O)N3CCCc4ccccc43)oc12`, which Potency is on record?
A: inconclusive: 29.1 µM [inhibitor, single point]

Q: For `CCc1nc2ccc(C(=O)NCCc3ccccn3)cn2c1N(C)Cc1cccs1`, which Potency is on record?
A: inconclusive: 20.6 µM [inhibitor, single point]

Q: Which Potency does the source give for `C#CCOCCOCCOCCNc1nc(N2CCOCC2)nc(N2CCN(C(=O)CCCCCCCCCCNC(=O)[C@@H]([C@H](C)CC)n3cc(CCCCCN)nn3)CC2)n1` here?
A: inconclusive: 25.9 µM [inhibitor, single point]

Q: Which Potency does the source give for `CCOc1ccccc1Nc1nc(-c2sc(NC(=O)c3ccco3)nc2C)cs1` here?
A: active: 14.6 µM

Q: Which Potency does the source give for `COC(=O)[C@@]12CCCCN1[C@H](c1ccc(-c3ccc(C(C)=O)cc3)c(OC)c1)[C@@H]1C(=O)N(C)C(=O)[C@@H]12` here?
A: active: 16.4 µM

Q: Which Potency does the source give for `Cc1ccc(NS(=O)(=O)c2cccc(C(=O)NCC(c3ccco3)N3CCCCC3)c2)cc1` (centres undefined) here?
A: active: 25.9 µM

Q: For `CCc1sc(C(=O)NCCc2ccc(S(N)(=O)=O)cc2)cc1C`, which Potency is on record?
A: inactive

Q: With `CCOC(=O)N1CCC(Nc2ncnc3c2cnn3-c2ccccc2)CC1` as the compound, how does the Potency read?
A: inconclusive: 7.94 µM [inhibitor, partial curve]

Q: With `Cc1ccc(S(=O)(=O)N2CCCC2c2nc3ccccc3s2)cc1` (centres undefined) as the compound, how does the Potency read?
A: inconclusive: 23.1 µM [inhibitor, partial curve, poor fit]

Q: For `CCOC(=O)c1oc2nc3c(cc2c1N)CCCC3`, which Potency is on record?
A: inactive

Q: With `COc1ccc(/C=C/c2cc(=O)c3cc(Cl)ccc3o2)cc1` as the compound, how does the Potency read?
A: inconclusive: 18.4 µM [inhibitor, single point]

Q: For `CCn1nc(C(=O)Nc2ccc(Cl)c(S(=O)(=O)N3CCOCC3)c2)c2ccccc2c1=O`, which Potency is on record?
A: inconclusive: 29.1 µM [inhibitor, single point]

Q: With `CC(=O)Nc1ccc(-n2c(=O)c3ccccc3c3ccccc3c2=O)cc1` as the compound, how does the Potency read?
A: inconclusive: 0.291 µM [inhibitor, full curve]

Q: With `CN(CCO)C(=O)c1ccc(-c2nn(C)c(=O)c3ccccc23)cc1` as the compound, how does the Potency read?
A: inactive

Q: Which Potency does the source give for `CN(CC(=O)Nc1ccc(S(=O)(=O)N2CCCC2)cc1)Cc1ccc(Cl)cc1Cl` here?
A: active: 18.4 µM

Q: Which Potency does the source give for `CCOc1c(S(=O)(=O)NC2CC(C)(C)NC(C)(C)C2)ccc(Cl)c1Cl` here?
A: inconclusive: 16.4 µM [inhibitor, single point]

Q: For `O=C(c1ccc(F)c(F)c1)N1CCOc2ccc(CN3CCN(Cc4ccccn4)CC3)cc2C1`, which activity change, negative = growth inhibition is on record?
A: inactive: 24.6% [at 9.04 µM]

Q: With `NC(c1ccccc1)c1csc(Nc2ccc(C(F)(F)F)cn2)n1` (centres undefined) as the compound, how does the Potency read?
A: inconclusive: 29.1 µM [inhibitor, single point]

Q: For `O=C(NC1CCCCC1)C(c1cccnc1)N(C(=O)CCl)c1ccc(F)cc1` (centres undefined), which Potency is on record?
A: active: 0.517 µM

Q: Which Potency does the source give for `CNC(=S)Nc1cc(C(F)(F)F)ccc1Cl` here?
A: inactive

Q: With `COc1cccc(CC(=O)OCC(=O)N(C)CC(=O)Nc2ccccc2Cl)c1` as the compound, how does the Potency read?
A: inactive

Q: For `CC(C)N1CCc2c(sc(NC(=O)c3ccc(S(=O)(=O)N(C)C4CCCCC4)cc3)c2C(N)=O)C1`, which Potency is on record?
A: inconclusive: 20.6 µM [inhibitor, single point]

Q: For `CC(C)c1ccc2c(c1)[C@H]1OCC[C@H]1[C@@H](c1cccs1)N2`, which Potency is on record?
A: active: 16.4 µM

Q: Which Potency does the source give for `O=C(NCc1ccc(Cl)cc1)c1ccc(CNS(=O)(=O)c2ccc(F)cc2)cc1` here?
A: inactive

Q: Which Potency does the source give for `CN1C(C(=O)NCc2ccccc2)CC2Cn3c(nc4cc(Cl)c(Cl)cc43)C21` (centres undefined) here?
A: inconclusive: 23.1 µM [inhibitor, single point]

Q: For `O=C(Nn1cnnc1)c1cc2c(s1)CCCC2`, which Potency is on record?
A: inactive

Q: For `Brc1ccc(-c2nnc3n2CCCCC3)cc1`, which Potency is on record?
A: inactive

Q: For `COc1ccc(Oc2c(Cl)cnn(-c3ccc(C)cc3)c2=O)cc1`, which Potency is on record?
A: inconclusive: 29.1 µM [inhibitor, single point]

Q: For `CCCCn1c(NCc2cc(C)ccc2O)nc2ccccc21`, which Potency is on record?
A: inactive

Q: With `Cc1sc(NC(=O)c2ccco2)c(CN2CCCCC2)c1C` as the compound, how does the Potency read?
A: inconclusive: 29.1 µM [inhibitor, single point]

Q: Which Potency does the source give for `CC(=O)Oc1ccc(C(=O)Nc2ccc3c(c2)OCCO3)cc1` here?
A: active: 14.6 µM
